In PubChem BioAssay AID1460 (National Center for Advancing Translational Sciences (NCATS), 2008):
Hit rate of the full screen: of about 270,000 compounds, about 5,800 (2.1%) were called active. Inconclusive means that the source gave no clear call. Such entries were picked first, then a sample of the others. Calls follow the shape of the dose curve; as a rule, active = well fitted inhibition curve with a large enough effect; inconclusive = small, poorly fitted or top-dose-only effect; inactive = flat fitted curve, though single readings scatter. Where the call is inconclusive, the potency comes from a doubtful curve fit.

Molecular target: Microtubule-associated protein tau (Homo sapiens) (UniProt P10636)
Chain of UniProt P10636 (P10636 whole entry, looked up): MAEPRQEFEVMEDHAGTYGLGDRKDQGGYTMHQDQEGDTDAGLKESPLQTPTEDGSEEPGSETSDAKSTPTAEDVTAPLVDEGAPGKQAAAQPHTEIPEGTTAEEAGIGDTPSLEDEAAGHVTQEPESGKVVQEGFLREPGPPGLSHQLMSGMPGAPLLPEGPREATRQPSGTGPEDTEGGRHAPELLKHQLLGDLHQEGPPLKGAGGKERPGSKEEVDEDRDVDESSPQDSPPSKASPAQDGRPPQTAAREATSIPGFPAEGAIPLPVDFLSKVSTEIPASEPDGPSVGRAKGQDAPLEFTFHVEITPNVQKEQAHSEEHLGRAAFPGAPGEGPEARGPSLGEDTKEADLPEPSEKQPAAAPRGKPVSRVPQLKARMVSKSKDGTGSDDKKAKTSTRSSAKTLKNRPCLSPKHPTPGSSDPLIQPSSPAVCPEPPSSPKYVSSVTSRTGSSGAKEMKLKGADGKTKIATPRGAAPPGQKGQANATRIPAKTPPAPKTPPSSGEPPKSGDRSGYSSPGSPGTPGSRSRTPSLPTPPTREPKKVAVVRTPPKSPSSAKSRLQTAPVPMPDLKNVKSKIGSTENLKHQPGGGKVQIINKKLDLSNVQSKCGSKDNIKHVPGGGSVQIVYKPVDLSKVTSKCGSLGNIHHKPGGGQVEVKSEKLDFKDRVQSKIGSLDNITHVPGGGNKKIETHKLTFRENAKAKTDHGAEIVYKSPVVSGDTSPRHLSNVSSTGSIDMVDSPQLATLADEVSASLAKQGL
Test: qHTS for Inhibitors of Tau Fibril Formation, Thioflavin T Binding; also: nearly all actives have a fitted effect of over 55% in size
Details: recombinant tau K18 P301L (four-repeat tau fragment), heparin-induced fibrillization, ThT fluorescence; series mostly up to 57.4 µM
In short: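 In this qHTS, human K18 P301L tau is incubated with compound and heparin for 6 hr at 37 C, and Thioflavin T fluorescence then reports fibril load.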
Potency is read from the fitted curve at half-maximal effect; tags tell the direction and shape of the fitted curve.

SMILES	Potency
CCCCN(CC)CCCNC(=O)Cn1ncc2c3ccccc3n(Cc3ccccc3F)c2c1=O	inactive
CCOc1ccc(-c2cc3c(=O)n(Cc4nc(-c5ccc(OC(C)C)cc5)oc4C)ccn3n2)cc1Cl	inconclusive: 1 µM [inhibitor, full curve, poor fit]
CC1=NN(c2ccc(C)c(C)c2)C(=O)C1C(c1cccc(O)c1)C1C(=O)N(c2ccc(C)c(C)c2)N=C1C (stereo not given)	inconclusive: 17.8 µM [inhibitor, partial curve]
COc1ccc(C2=C(SC)CC2=NC(C)(C)C)cc1	inconclusive: 39.8 µM [inhibitor, single point]
CCC(=O)Nc1nc(C)c(-c2csc(Nc3cccc(C(=O)O)c3)n2)s1	active: 3.98 µM
CCOC(=O)c1c(C)[nH]c(C)c1S(=O)(=O)NCC(=O)NCc1ccc(C)cc1	inactive
O=[N+]([O-])c1ccccc1/C=N/n1c(-c2cccnc2)n[nH]c1=S	inconclusive: 35.5 µM [inhibitor, single point]
Cc1ccc(C(=O)Cn2cc([N+](=O)[O-])nc2C)cc1	inactive
O=C(/C=C/c1ccc(Br)o1)NCCCN1CCOCC1	inconclusive: 22.4 µM [inhibitor, partial curve, poor fit]
Cc1ccc(SCCNC(=O)/C=C/c2ccc([N+](=O)[O-])cc2)cc1	inconclusive: 12.6 µM [inhibitor, partial curve]
COc1ccc(C(=O)Nc2ccc(N3CCN(C)CC3)cc2)cc1[N+](=O)[O-]	inactive
COc1ccc(/C=N/NC(=O)c2cccc([N+](=O)[O-])c2)cc1O	inconclusive: 20 µM [inhibitor, partial curve]
Cc1ccc(S(=O)(=O)c2nnn3c2nc(NC(C)c2ccccc2)c2sccc23)cc1 (stereo not given)	inactive
CCCc1nc(SC2CCCC2)c2c(=O)n(C)c(=O)n(C)c2n1	inconclusive: 20 µM [inhibitor, single point]
COc1ccc(/C=N/NC(=O)c2ccc(N)cc2)cc1Cn1cc([N+](=O)[O-])cn1	inconclusive: 17.8 µM [inhibitor, partial curve, poor fit]
O=C(/C=C/c1ccc(OC2CSC2)cc1)c1ccc(Cl)cc1	inconclusive: 10 µM [inhibitor, partial curve]
O=C(COCc1cc(-c2ccc(F)cc2)on1)Nc1cccc(Cl)c1Cl	inactive
CC(OC(=O)c1c2c(nc3ccccc13)/C(=C\c1ccc3c(c1)OCO3)CCC2)C(=O)Nc1ccc(S(N)(=O)=O)cc1 (stereo not given)	inconclusive: 11.2 µM [inhibitor, partial curve]
CCCc1cc(=O)[nH]c2nnc(SCC(=O)Nc3ccc(OC)cc3)n12	inactive
O=c1c(C(c2ccc(Cl)cc2)c2c(O)nc3n(c2=O)CCS3)c(O)nc2n1CCS2	inconclusive: 3.55 µM [inhibitor, single point]
C=CCn1c(SCC(=O)c2ccc(O)c(O)c2)nnc1-c1ccccc1OC	inconclusive: 20 µM [inhibitor, single point]
Cc1ccc(NC(=O)c2ccccc2NS(=O)(=O)c2ccc(Cl)s2)cc1S(=O)(=O)N1CCOCC1	inconclusive: 17.8 µM [inhibitor, partial curve]
COc1ccc(CCNC(=O)c2ccc3c(=O)n(Cc4ccco4)c(=S)[nH]c3c2)cc1OC	inconclusive: 15.8 µM [inhibitor, partial curve]

SMILES	Potency
Fc1cnc(N2CCOCC2)nc1N1CCc2ccccc21	inactive
CC(=O)Nc1ccc2c(c1)nc1n2CCN(C2CCCCC2)C1	inconclusive: 22.4 µM [inhibitor, partial curve]
CCn1c(SCC(=O)Nc2ccc(N3CCOCC3)c(Cl)c2)nnc1-c1ccc(N)cc1	inconclusive: 3.16 µM [inhibitor, full curve]
Cc1ccc(NC(=O)CSc2nc3ccc(NC(=O)c4cccs4)cc3s2)cc1	inactive
CCOc1cc(CNC(=O)c2ccc(Cn3c(=O)c4cccn4c4cccnc43)cc2)ccc1OC	inactive
O=C1NCCC/C1=N\Nc1ccc(Br)cc1	inactive
N#C/C(=C\c1cc2ccccc2nc1N1CCCCC1)C(N)=O	inconclusive: 25.1 µM [inhibitor, single point]
Cc1ccc(F)cc1NC(=O)CCc1c(C)nn(-c2ccc(N3CCCC3)nn2)c1C	inactive
CCCCC(=O)Oc1ccc2oc(-c3ccc(OC)cc3)cc(=O)c2c1	inconclusive: 2.24 µM [inhibitor, full curve]
CCC(Sc1nnc(C)n2c1cc1sccc12)C(=O)Nc1ccccc1F (stereo not given)	inconclusive: 11.2 µM [inhibitor, partial curve]
CCOC(=O)c1c(SCC(=O)Nc2nc3ccccc3s2)nc(=O)[nH]c1C	inconclusive: 10 µM [inhibitor, partial curve]
CCOc1ccccc1C(=O)Nc1ccc(S(=O)(=O)Nc2onc(C)c2C)cc1	inconclusive: 31.6 µM [inhibitor, single point]
CC(C)(C)c1ccc(C(=O)NC(=S)NNC(=O)c2cccs2)cc1	inconclusive: 25.1 µM [inhibitor, partial curve]
Cc1cc(C(C)(C)C)ccc1OCCN(C)C	inactive
Cc1cc(=S)[nH]c2ccccc12	inactive
CN(C)c1nc(OCCOC(=O)COc2ccc(Cl)cc2Cl)nc(N(C)C)n1	inconclusive: 15.8 µM [inhibitor, partial curve]
CC(C)C(=O)c1cn(CC(=O)NCC2CCCO2)c2ccccc12 (stereo not given)	inactive
Cc1ccc2c(c1)c(=O)c1c3n2CCN(C(=O)CCl)C3CC1 (stereo not given)	active: 14.1 µM
S=C(NNc1ccnc2cc(Cl)ccc12)Nc1ccc(Cl)cc1Cl	active: 3.98 µM
O=C(Nc1nc(-c2cccs2)cs1)c1ccc(Cl)cc1	inconclusive: 1.41 µM [inhibitor, full curve, poor fit]
O=C(OCCN1C(=O)c2ccccc2C1=O)c1cc2ccccc2o1	inconclusive: 22.4 µM [inhibitor, partial curve]
CN(Cc1ccc(F)cc1)S(=O)(=O)c1nnc(NC(=O)c2ccccc2Br)s1	inactive
